Experimental data published in the antibiotic and cytotoxicity screens of Wong et al. (2023).
Some of the results follow.

How the values were obtained:
HSkMC = human skeletal muscle cells; assay: cytotoxicity call (relative viability < 0.9); settings: 10 µM
HepG2 = assay: cytotoxicity call (relative viability < 0.9); settings: 10 µM
S. aureus RN4220 = assay: growth inhibition call (relative growth <= 0.2); settings: 50 µM

| Structure (SMILES) | cytotoxicity call (HSkMC) | cytotoxicity call (HepG2) | growth inhibition call (S. aureus RN4220) |
| --- | --- | --- | --- |
| C[C@@H]1CN([C@@H](C)CO)C(=O)c2cccc(NC(=O)Nc3ccc4c(c3)OCO4)c2O[C@@H]1CN(C)S(C)(=O)=O | inactive | inactive | inactive |
| O=C(O)c1ccccc1-c1c2cc(I)c(=O)c(I)c-2oc2c(I)c(O)c(I)cc12 | active | inactive | active |
| CC1CCC2(OC1)OC1CC3C4CCC5CC(O)CCC5(C)C4CCC3(C)C1C2C (stereo not drawn) | inactive | inactive | inactive |
| COc1ccc(S(=O)(=O)N(C)C[C@@H]2Oc3ccc(NS(=O)(=O)c4cn(C)cn4)cc3C(=O)N([C@@H](C)CO)C[C@H]2C)cc1 | inactive | inactive | inactive |
| NC(=O)CC(N)=S | inactive | inactive | inactive |
| CN1C(=O)c2cc(NC(=O)Cc3cccs3)ccc2OC[C@H]2O[C@H](CC(=O)NCc3ccc(-c4ccccc4)cc3)CC[C@@H]21 | inactive | inactive | inactive |
| COc1ccc([Si](C)(C)[C@@H]2[C@@H](CC(=O)N3Cc4ccccc4C[C@H]3CO)O[C@]3(C(=O)N(Cc4ccc(N5CCOC5=O)cc4)c4ccccc43)[C@H]2C)cc1 | inactive | inactive | inactive |
| C[C@@H]1CN([C@@H](C)CO)C(=O)c2cc(NC(=O)Nc3cccc4ccccc34)ccc2O[C@@H](C)CCCCO[C@H]1CN(C)S(=O)(=O)c1ccc(F)cc1 | inactive | inactive | inactive |
| Cc1ccc(-c2ccc3c(c2)O[C@H](CN(C)Cc2cncnc2)[C@H](C)CN([C@@H](C)CO)S3(=O)=O)cc1 | inactive | inactive | inactive |
| C[C@@H]1CN([C@H](C)CO)C(=O)Cc2cc(NC(=O)CCCCCC(=O)Nc3ccccc3N)ccc2O[C@@H]1CN(C)Cc1ccc(C(F)(F)F)cc1 | active | active | inactive |
| CC(C)CC#Cc1cnc2c(c1)C(=O)N([C@H](C)CO)C[C@@H](C)[C@H](CN(C)C(=O)CCN1CCCCC1)O2 | inactive | inactive | inactive |
| COC(=O)c1c(CC[C@@H](CO)NC(=O)N[C@H](Cn2cc(-c3ccccc3C)nn2)C(C)C)oc(C(C)=O)c1C(=O)OC | inactive | inactive | inactive |
| CS(=O)(=O)N1CCCCC1 | inactive | inactive | inactive |
| Cc1noc(C)c1NC(=O)Nc1cccc2c1O[C@@H](CN(C)S(=O)(=O)c1cn(C)cn1)[C@@H](C)CN([C@@H](C)CO)C2=O | inactive | inactive | inactive |
| CN(C)CCCNC(=O)[C@@]1(C)c2ccccc2C(=O)N(Cc2cc(F)cc(C(F)(F)F)c2)[C@H]1c1ccc(CO)cc1 | inactive | inactive | inactive |
| C[C@@H]1CN([C@@H](C)CO)C(=O)Cc2cc(NC(=O)Nc3ccc(F)cc3)ccc2O[C@H]1CN(C)CC1CCCCC1 | inactive | inactive | inactive |
| NNC(=O)CNC(=O)c1ccccc1 | inactive | inactive | inactive |
| O=C(O)CC1(C(F)(F)F)OCCO1 | inactive | inactive | inactive |
| C=CCNC(=O)[C@H]1[C@@H]2C(=O)O[C@@H](c3ccccc3)[C@@H](c3ccccc3)N2[C@@H](c2ccccc2OCCO)[C@]12C(=O)N(C(=O)OCCOC)c1ccc(C#CC3(O)CCCCCC3)cc12 | inactive | active | inactive |

| Structure (SMILES) | cytotoxicity call (HSkMC) | cytotoxicity call (HepG2) | growth inhibition call (S. aureus RN4220) |
| --- | --- | --- | --- |
| C[C@H](CO)N1C[C@H](C)[C@H](CN(C)S(=O)(=O)c2ccc(F)cc2)Oc2ccc(NC(=O)Cn3cnnn3)cc2C1=O | inactive | inactive | inactive |
| COc1ccc(S(=O)(=O)N[C@H]2CC[C@H](CC(=O)N3CCC(Cc4ccccc4)CC3)O[C@H]2CO)cc1 | inactive | inactive | inactive |
| C[C@H]1CC[C@@H]2C(C(=O)O[C@H]3[C@H]4O[C@@]4(C)[C@H]4[C@@H](O[C@H]5O[C@@H](CO)[C@@H](O)[C@@H](O)[C@@H]5O)OC=C[C@@]34O)=CO[C@H](O[C@H]3O[C@@H](CO)[C@@H](O)[C@@H](O)[C@@H]3O)[C@@H]21 | inactive | inactive | inactive |
| O=C1CN2CCN3CCN([C@@H](CO)[C@@H](O)CO)CCN(CC2)CC(=O)[O][Gd]([O]1)[O]C(=O)C3 | inactive | inactive | inactive |
| O=C(C[C@H]1C=C[C@H](NS(=O)(=O)c2ccccc2)[C@@H](CO)O1)NCc1ccncn1 | inactive | inactive | inactive |
| C[C@H]1CN([C@@H](C)CO)S(=O)(=O)c2ccc(C#CC3(O)CCCC3)cc2O[C@H]1CN(C)C(=O)Cc1ccncc1 | inactive | inactive | inactive |
| C[C@@H]1CN([C@H](C)CO)C(=O)c2cc(NC(=O)Nc3ccc4c(c3)OCO4)ccc2O[C@@H](C)CCCCO[C@@H]1CN(C)CC1CCCCC1 | inactive | inactive | inactive |
| COc1ccc(S(=O)(=O)N(C)C[C@H]2Oc3ccc(N(C)C)cc3C(=O)N([C@H](C)CO)C[C@@H]2C)cc1 | inactive | inactive | inactive |
| C[C@H]1CN([C@@H](C)CO)C(=O)c2cc(NC(=O)Nc3cccc4ccccc34)ccc2O[C@H]1CN(C)C(=O)Nc1ccc(F)cc1 | inactive | inactive | inactive |
| C[C@H]1CN([C@@H](C)CO)C(=O)c2cccc(NC(=O)c3cnccn3)c2O[C@@H]1CN(C)S(=O)(=O)c1ccccc1 | inactive | inactive | inactive |
| C[C@@H]1CN([C@@H](C)CO)C(=O)c2cc(NS(=O)(=O)c3ccc(F)cc3)ccc2O[C@H]1CN(C)S(=O)(=O)c1cn(C)cn1 | inactive | inactive | inactive |
| C[C@H]1CN([C@@H](C)CO)C(=O)c2cccc(NC(=O)c3ccc(-c4nccs4)cc3)c2O[C@@H]1CN(C)Cc1ccc(C(=O)Nc2ccccc2N)cc1 | inactive | inactive | inactive |
| Cc1ccc2ncccc2c1 | inactive | inactive | inactive |
| COc1cccc(S(=O)(=O)N[C@@H]2CC[C@H](CC(=O)NC3CCC3)O[C@H]2CO)c1 | inactive | inactive | inactive |
| C[C@@H]1CN([C@@H](C)CO)C(=O)c2cc(NC(=O)Nc3ccc(F)cc3)ccc2O[C@@H](C)CCCCO[C@@H]1CN(C)Cc1ccccc1 | inactive | active | inactive |
| C[C@H]1CN([C@@H](C)CO)C(=O)c2cccc(NS(=O)(=O)c3cccs3)c2O[C@@H]1CN(C)S(=O)(=O)c1ccccc1 | inactive | inactive | inactive |
| COc1cccc(C#Cc2ccc3c(c2)O[C@@H](CN(C)C(=O)c2ccccn2)[C@@H](C)CN([C@@H](C)CO)S3(=O)=O)c1 | inactive | inactive | inactive |
| CC(C)(C)[S@@](=O)N1Cc2cc(C(=O)NCCc3ccncc3)nc(-c3cccc(-c4ccc(C#N)cc4)c3)c2[C@H]1CCO | inactive | inactive | inactive |
| Cc1ccc(S(=O)(=O)N(C)C[C@@H]2Oc3c(NC(=O)Nc4cccc5ccccc45)cccc3C(=O)N([C@H](C)CO)C[C@@H]2C)cc1 | inactive | inactive | inactive |

| Structure (SMILES) | cytotoxicity call (HSkMC) | cytotoxicity call (HepG2) | growth inhibition call (S. aureus RN4220) |
| --- | --- | --- | --- |
| C[C@@H]1CN([C@H](C)CO)C(=O)Cc2cc(NC(=O)Nc3ccc(C(F)(F)F)cc3)ccc2O[C@@H]1CN(C)CC1CCCCC1 | active | active | inactive |
| C[C@@H]1CN([C@@H](C)CO)C(=O)c2cccc(NS(=O)(=O)c3ccc(Cl)cc3)c2O[C@@H]1CN(C)Cc1ccc(Cl)c(Cl)c1 | inactive | inactive | inactive |
| C[C@H]1CCCCO[C@H](CN(C)Cc2ccc(C(=O)O)cc2)[C@@H](C)CN([C@@H](C)CO)C(=O)c2cc(NC(=O)C3CCCCC3)ccc2O1 | inactive | inactive | inactive |
| O=C1COc2cccnc2N1 | inactive | inactive | inactive |
| COc1ccc(NC(=O)Nc2ccc3c(c2)CC(=O)N([C@H](C)CO)C[C@H](C)[C@H](CN(C)CC2CCCCC2)O3)cc1 | inactive | inactive | inactive |
| Cc1noc(C)c1S(=O)(=O)Nc1cccc2c1O[C@H](CN(C)Cc1ccc(C(=O)O)cc1)[C@@H](C)CN([C@@H](C)CO)C2=O | inactive | inactive | inactive |
| C[C@H](CO)N1C[C@H](C)[C@@H](CN(C)Cc2ccc(Cl)c(Cl)c2)OCCCC[C@H](C)Oc2ccc(NS(=O)(=O)c3ccc(Cl)cc3)cc2C1=O | inactive | inactive | inactive |
| CCn1cc(C(=O)O)c(=O)c2cc(F)c(N3CCN(C)CC3)cc21.CS(=O)(=O)O | inactive | inactive | active |
| FC(F)(F)c1ccc(/C=N/c2cc(Cl)cc(Cl)c2)cc1 | inactive | inactive | inactive |
| CC(C)(C)NCC(O)COc1nsnc1N1CCOCC1.O=C(O)C=CC(=O)O (stereo not drawn) | inactive | inactive | inactive |
| COc1ccc(NC(=O)N(C)C[C@H]2Oc3c(NC(=O)C4CCOCC4)cccc3C(=O)N([C@H](C)CO)C[C@H]2C)cc1 | inactive | inactive | inactive |
| COc1ccc(S(=O)(=O)Nc2ccc3c(c2)C(=O)N([C@@H](C)CO)C[C@@H](C)[C@@H](CN(C)Cc2ccc(C(F)(F)F)cc2)OCCCC[C@@H](C)O3)cc1 | inactive | active | inactive |
| CN(C)c1ccc(CN)cn1 | inactive | inactive | inactive |
| Cc1noc(C)c1NC(=O)Nc1ccc2c(c1)CC(=O)N([C@H](C)CO)C[C@@H](C)[C@@H](CN(C)CC1CC1)O2 | inactive | inactive | inactive |
| CNC[C@@H]1Oc2cc(C#CCN(C)C)ccc2S(=O)(=O)N([C@@H](C)CO)C[C@@H]1C | inactive | inactive | inactive |
| C[C@@H]1CN([C@H](C)CO)S(=O)(=O)c2ccc(C#CCN(C)C)cc2O[C@H]1CN(C)Cc1ccc(F)cc1 | inactive | active | inactive |
| COc1ccc(S(=O)(=O)Nc2ccc3c(c2)C(=O)N([C@H](C)CO)C[C@H](C)[C@H](CN(C)Cc2ccc(-c4ccccc4)cc2)O3)cc1 | inactive | inactive | inactive |
| C[C@@H]1CN([C@@H](C)CO)C(=O)Cc2cc(NC(=O)C3CC3)ccc2O[C@@H]1CN(C)S(=O)(=O)c1ccc(F)cc1 | inactive | inactive | inactive |
